Assay results reported in article PMC4336329 (PLoS ONE, 2015).
Out of some 310,000 compounds screened, about 14,000 (4.5%) showed an effect of 50% or more. Effects have a minus sign here. The list shows a part of the results.

target: human ether-à-go-go-related gene (hERG) potassium channel (human, UniProt Q12809); assay: primary screen, population patch clamp on CHO cells stably expressing hERG
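Also: peak tail current of the secondary pulse compared with the same well before compound.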

human ether-à-go-go-related gene (hERG) potassium channel, sequence (Q12809 whole entry, looked up): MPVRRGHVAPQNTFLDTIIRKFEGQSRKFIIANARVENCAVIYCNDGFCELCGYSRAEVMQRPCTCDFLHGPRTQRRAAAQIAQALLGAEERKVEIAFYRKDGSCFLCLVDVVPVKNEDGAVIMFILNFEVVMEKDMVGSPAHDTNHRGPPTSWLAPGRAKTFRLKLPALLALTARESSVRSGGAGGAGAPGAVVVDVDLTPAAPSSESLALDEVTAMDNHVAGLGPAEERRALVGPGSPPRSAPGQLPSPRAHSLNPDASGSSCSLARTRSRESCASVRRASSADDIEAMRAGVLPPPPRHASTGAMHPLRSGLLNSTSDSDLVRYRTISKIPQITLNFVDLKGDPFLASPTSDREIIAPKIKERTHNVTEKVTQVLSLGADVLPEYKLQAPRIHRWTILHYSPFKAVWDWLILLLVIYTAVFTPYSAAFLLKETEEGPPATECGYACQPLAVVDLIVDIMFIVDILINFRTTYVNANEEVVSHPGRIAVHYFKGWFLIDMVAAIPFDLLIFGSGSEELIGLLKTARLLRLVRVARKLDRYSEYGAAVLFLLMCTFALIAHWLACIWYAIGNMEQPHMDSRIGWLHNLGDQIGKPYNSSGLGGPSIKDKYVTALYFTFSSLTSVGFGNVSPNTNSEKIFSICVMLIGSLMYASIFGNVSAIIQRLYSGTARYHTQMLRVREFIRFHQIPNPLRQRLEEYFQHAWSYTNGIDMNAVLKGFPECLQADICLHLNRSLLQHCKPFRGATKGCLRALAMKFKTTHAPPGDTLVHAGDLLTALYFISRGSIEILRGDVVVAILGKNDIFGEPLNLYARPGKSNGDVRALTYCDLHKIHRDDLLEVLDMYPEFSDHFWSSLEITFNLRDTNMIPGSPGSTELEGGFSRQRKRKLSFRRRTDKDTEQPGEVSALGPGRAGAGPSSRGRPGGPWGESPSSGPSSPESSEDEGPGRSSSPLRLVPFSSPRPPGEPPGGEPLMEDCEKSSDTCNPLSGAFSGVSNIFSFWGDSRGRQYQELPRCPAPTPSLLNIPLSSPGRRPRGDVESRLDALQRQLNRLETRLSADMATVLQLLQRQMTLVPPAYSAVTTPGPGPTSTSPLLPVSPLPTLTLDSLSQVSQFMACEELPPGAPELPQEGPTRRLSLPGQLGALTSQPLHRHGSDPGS

Structure (SMILES) | hERG current change (%, negative = inhibition) at 10uM [%]
CCc1ccc(-c2nnn(CCC#N)n2)cc1 | 15.4
O=C(Nc1cccc(-c2ccccc2)c1)N1CCN(C(=O)Nc2cccc(-c3ccccc3)c2)CC1 | 13.4
COc1ccc(CNC(=O)C(Cc2ccccc2)n2cccc2)cc1 (centres unmarked) | -9.11
COC(=O)c1sccc1NC(=O)COc1cccc(C)c1 | 8.18
CCC12CN3CC(CC)(CN(C1)C3c1ccc(OC(C)C)cc1)C2=O (centres unmarked) | -8.41
CCC(=O)NC(=S)Nc1cccc(NC(=O)CC)c1 | 12.1
CC(=O)NC(=S)Nc1ccc(NC(=S)NC(=O)c2cccs2)cc1 | 14.7
CC(C)[C@H](NC(=O)[C@@H]1Cc2ccccc2CN1C(=O)OC(C)(C)C)C(=O)NCC1CCCO1 (some centres unmarked) | 5.38
Cc1cc(N/C=C2\CCCCC2=O)no1 | 14.2
CCCCCN(C(=O)COC(=O)Cc1c(C)nc2ccccc2c1C)c1c(N)n(CCCC)c(=O)[nH]c1=O | -11
CCOC(=O)COc1ccccc1C(=O)c1cnn(-c2ccccc2)c1 | -11.9
O=C(Nc1ccccc1)N1CCCC2CCCCC21 (centres unmarked) | -32
COc1cc(/C=N/Nc2ccc(C)cc2)cc(Br)c1O.Cl | 11.6
O=C(OCC(=O)N1CCCc2ccccc21)c1ccccc1[N+](=O)[O-] | -12.3
CC(=O)Nc1cc[n+](CC(=O)c2cccc([N+](=O)[O-])c2)cc1.[Cl-] | -5.08
CC(=O)/C(=N\Nc1ccccc1Cl)Sc1cccc2cccnc12 | -2.72
Cc1cccc(N2CCN(CC(=O)Nc3ccc(S(=O)(=O)N4CCOCC4)cc3)CC2)c1C | -44.9
O=C(COC(=O)Cc1ccsc1)Nc1ccc(Cl)cn1 | 18.8
O=C(C1COc2ccccc2O1)N1CCN(c2nc3c(F)cc(F)cc3s2)CC1 (centres unmarked) | -16.6
CSc1scc2c1-c1nc(SCC(=O)C(C)(C)C)ncc1CC2 | 11
O=C1CC(c2ccccc2)CC(O)=C1C=Nc1ccc(O)cc1 (centres unmarked) | -4.73
CC1CCCC(C)N1C(=O)c1ccc(S(=O)(=O)NCc2ccco2)cc1 (centres unmarked) | 4.25
CCCNC(=S)N1CCN(C)CC1.O=C(O)C(=O)O | 19.2

Structure (SMILES) | hERG current change (%, negative = inhibition) at 10uM [%]
O=C(NNC(=O)C1CCN(Cc2cccc(F)c2)CC1)c1cccc(Cl)c1 | -8.28
O=C(C1=C[C@@H](c2ccc3c(c2)OCO3)C[C@@H](OCCCCO)O1)N1CCN(Cc2ccc3c(c2)OCO3)CC1 | -65.9
Cc1ccc(C)n1-c1ccc(C(=O)NC2CCN(Cc3ccccc3)CC2)cc1 | -65.5
Cc1cc(NCC(C)C)n2ncnc2n1 | 14
Cc1ccc(-c2nn(CCC(=O)NCC3CCCO3)c(=O)c3ccccc23)cc1 (centres unmarked) | -12.4
NC(=O)CSc1nnc(-c2ccoc2)o1 | 11.8
Nc1c(Cl)cnc(C(Cl)(Cl)Cl)c1Cl | -8.58
Cc1ccc(S(=O)(=O)N(C)C(C)CCc2ccco2)cc1 (centres unmarked) | -9.1
O=C1CC(C(=O)N2CCCc3ccccc32)CN1c1ccc(Cl)cc1 (centres unmarked) | -45.6
O=C(COC(=O)Cc1ccsc1)NCc1ccc(Cl)cc1 | 10.6
Cc1ccc(-c2nc3n(n2)Cc2ccccc2-3)cc1 | -6.88
Cc1onc(-c2ccccc2Cl)c1C(=O)NCCCc1ccccc1 | -10.1
O=C(CCC(=O)N1CCOc2ccccc21)NCCCc1ccccc1 | -17.5
CC1CC(C)CN(c2ccc(C(=O)NCc3ccc4c(c3)OCO4)cc2[N+](=O)[O-])C1 (centres unmarked) | 5.2
COc1ccc(S(=O)(=O)N2CCCC(C(=O)NCCc3ccccc3)C2)cc1 (centres unmarked) | 12.9
Cc1cc(/C=N/n2cnnc2)c(C)n1-c1ccc(OCc2ccccc2F)cc1 | 5.61
COCCn1c(C)cc(C(=O)CSc2nncn2-c2ccccc2)c1C | -15
CC(=O)N1CCOc2ccc(S(=O)(=O)NCc3ccccc3Cl)cc21 | -11.6
O=C1Nc2ccccc2C1=Nc1ccc(-c2nnc3n2CCCCC3)cc1 | 15.4
CCC(=O)Nc1ccc2c(c1)C(=O)N(C1CCCCC1)C2=O | 14.4
CCOc1ccc(S(=O)(=O)NC(C)C(=O)NCc2ccncc2)cc1 (centres unmarked) | 9.19
COc1cccc(OCCCn2ccnc2)c1.Cl | 16.5
CSc1ccc(C2=CC(=O)C[C@H](c3ccc(F)cc3)C2)cc1 | 4.96

Structure (SMILES) | hERG current change (%, negative = inhibition) at 10uM [%]
Cc1cc(Cl)c2oc(C(=O)N(C)CCc3cnn(C)c3)c(C)c2c1 | 3.12
Cc1nn(-c2ccccc2)c(C)c1C1C(C#N)=C(N)Oc2n[nH]c(C)c21 (centres unmarked) | -2.92
O=C(Nc1nccs1)c1ccc(COc2ccccc2Br)o1 | -6.85
O=C(c1ccc(=O)[nH]c1)N(Cc1cccs1)C1(C(=O)NC2CCCC2)CCCCC1 | -17
O=C(Nc1ccccc1)c1cccc(Cn2cc(C(F)(F)F)ccc2=O)c1 | -10.8
O=C(NN1C(=O)C2C3C=CC(C3)C2C1=O)c1cccc(Cl)c1 (centres unmarked) | 10.9
COc1ccccc1OCc1nc(Cc2ccc(Cl)cc2)no1 | -31.4
CCC(C)NC(=O)C1CCC(=O)N1Cc1ccc(C)cc1 (centres unmarked) | 17.6
Cc1cc(NC(=O)CSc2nnnn2-c2ccccc2)no1 | -9.38
CCOc1ccc(CCNC(=O)CCn2cccc2)cc1OCC | 9.34
Cc1ccccc1C(=O)/C=C1/c2ccccc2CC(C)(C)N1C | -30
COc1ccc(N2C(=O)NC3CC2(C)Oc2ccccc23)cc1OC (centres unmarked) | -8.91
Cn1c(=O)cc(OCCCC(=O)NCCC2=CCCCC2)c2ccccc21 | -9.04
O=C(COc1ccccc1C(=O)c1cnn(-c2ccccc2)c1)Nc1ccccc1 | 11.4
O=C(CN1C(=O)NC2(CCOc3ccccc32)C1=O)c1ccc[nH]1 (centres unmarked) | -3.83
O=C(CCCOC(=O)c1ccc(O)cc1O)c1ccc(F)cc1 | -11.6
CCn1c(P(C)(=O)[O-])nc2ccccc21.[Na+] | 8.91
COc1cccc(/C=C/C(=O)OCC(=O)Nc2ccc(S(=O)(=O)N3CCCC3)cc2)c1 | 5.99
CC(C)(C)c1nnc2cccc(Cl)n12 | 1.56
CC(NS(=O)(=O)OCC(Cl)(Cl)Cl)c1ccc(C(C)(C)C)cc1 (centres unmarked) | 8.59
COc1ccc(NC(=O)CN(C)S(=O)(=O)c2cnc[nH]2)cc1OC | 18.7
CC(=O)c1ccc(NC(=O)C(C)OC(=O)C2CCN(c3ccc(C(F)(F)F)cn3)CC2)cc1 (centres unmarked) | -10.6
COc1cc(/C=N/NC(=O)C(=O)NCc2ccco2)ccc1O | -0.759

Structure (SMILES) | hERG current change (%, negative = inhibition) at 10uM [%]
COc1ccc2nc(SCC(=O)Nc3c(C)cc(C)cc3C)[nH]c2c1 | 14.5
Cn1c(SCC(=O)NC2CC2)nnc1C(F)(F)F | -1.32
CCn1c(C)nc2c1C(=O)c1ccccc1C2=O | -5.13
O=S(=O)(CCc1ccncc1)Cc1ccc2c3c(cccc13)CC2 | 1.07
Cc1ccc(NC(=O)C(Nc2cccc(C)c2)c2ccccc2)cc1 (centres unmarked) | -8.24
CC(C)CC1CCCCC1OC(=O)CN1CCCCC1 (centres unmarked) | 4.84
Cc1cccc(C(=O)NNC(=O)c2n[nH]c(=O)c3ccccc23)c1C | -14.2
CC(C)Cc1nnc(NC(=O)CN2C(=O)NC3(CCCC3)C2=O)s1 | -9.22
COc1ccc(S(=O)(=O)N2CCC(C(=O)NCc3cccs3)CC2)cc1 | 9.4
Nc1ccc(/C=C/C(=O)c2cccs2)cc1 | -0.114
COc1ccc2oc(C(=O)OCC(=O)N(C)Cc3ccccc3)c(C)c2c1 | -13.1
CC1CCC/C(=N\NC(=S)Nc2ccccc2)C1 (centres unmarked) | 7.36
CCc1ccc(NC(=O)C(=O)NCC(O)c2ccccc2)cc1 (centres unmarked) | 8.25
CCSc1nnc(NC(=O)CSc2c(Cl)cccc2Cl)s1 | 0.819
COCCn1c(Sc2ccc(C)cc2)nc2c1c(=O)[nH]c(=O)n2C | -0.808
COc1ccccc1CN1CCN(Cc2nc(-c3ccccc3)no2)CC1 | -23.6
CCOC(=O)/C(C#N)=C/c1ccc(N2CCN(C)CC2)cc1 | -27.8
C/C(=N\NC(=O)c1cccc([N+](=O)[O-])c1)c1ccco1 | -9.5
COC(=O)c1cc(S(=O)(=O)N2CCC(C)CC2)cn1C | 13.1
COc1cccc(CNC(=O)Cc2ccc(OC)c(S(=O)(=O)N3CCOCC3)c2)c1 | 8.32
CCOC(=O)C1(CCOc2ccccc2)CCN(Cc2ccc(O)c(Cl)c2)CC1 | -53
COc1ccc(CNC(=O)c2ccc3oc(C(C)C)nc3c2)cc1 | -2.67
CCn1cc(C(=O)NC2CC(C)(C)Cc3c2cnn3-c2cccc(F)c2)cn1 (centres unmarked) | -23.4
